The target of experiment [1] is T1, PoloBoxtide with phosphotyrosine substituted for phosphothreonine.
T1 sequence (peptide, phosphotyrosine at 8): MAGPMQSYPLNGAKK
The experiment is described as follows: condition: no detectable binding by ITC for a Plk-1 PBD concentration of at least 150 µM; ITC.

By UniProt entry, the sequences of proteins in these tests, tags left out. Where a name states a change or a piece, a line headed by the entry shows the natural chain unless it says otherwise.
UniProt P53350: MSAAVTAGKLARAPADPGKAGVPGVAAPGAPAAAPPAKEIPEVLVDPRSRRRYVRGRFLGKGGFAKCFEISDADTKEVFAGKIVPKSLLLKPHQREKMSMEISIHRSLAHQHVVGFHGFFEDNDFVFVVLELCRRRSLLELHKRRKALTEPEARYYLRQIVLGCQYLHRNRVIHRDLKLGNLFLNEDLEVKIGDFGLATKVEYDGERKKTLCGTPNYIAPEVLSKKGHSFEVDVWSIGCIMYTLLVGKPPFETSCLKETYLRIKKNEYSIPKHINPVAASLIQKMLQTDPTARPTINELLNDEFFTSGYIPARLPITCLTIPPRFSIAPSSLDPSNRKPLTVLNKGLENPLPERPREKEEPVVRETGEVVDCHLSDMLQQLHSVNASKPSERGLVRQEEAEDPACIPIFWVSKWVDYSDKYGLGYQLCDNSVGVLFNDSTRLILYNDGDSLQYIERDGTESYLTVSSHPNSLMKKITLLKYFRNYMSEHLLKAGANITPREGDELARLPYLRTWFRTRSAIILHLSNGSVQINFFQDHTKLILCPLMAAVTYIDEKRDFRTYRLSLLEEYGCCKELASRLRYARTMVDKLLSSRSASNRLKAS

Experiment [2] has as its target T2, PoloBoxtide with Ser at pThr-1 replaced with Ala.
T2 sequence (peptide, phosphothreonine at 8): MAGPMQATPLNGAKK
The experiment is described as follows: condition: no detectable binding for a Plk1 PBD concentration of at least 150 µM; ITC.

The target in experiment [3] is T3, PoloBoxtide with Ser at pThr-1 replaced with Cys.
T3 sequence (peptide, phosphothreonine at 8): MAGPMQCTPLNGAKK
Described as above.

Experiment [4] has as its target T4, PoloBoxtide with Ser at pThr-1 replaced with Thr.
T4 sequence (peptide, phosphothreonine at 8): MAGPMQTTPLNGAKK
The experiment is described as above.

The target of experiment [5] is T5, PoloBoxtide with Ser at pThr-1 replaced with Gly.
T5 sequence (peptide, phosphothreonine at 8): MAGPMQGTPLNGAKK
The experiment is described as above.

Experiment [6] has as its target T6, HA-tagged Cdc25C Thr130Ala (human) (UniProt P30307).
T6 sequence (mitotically phosphorylated (incompletely), looked up): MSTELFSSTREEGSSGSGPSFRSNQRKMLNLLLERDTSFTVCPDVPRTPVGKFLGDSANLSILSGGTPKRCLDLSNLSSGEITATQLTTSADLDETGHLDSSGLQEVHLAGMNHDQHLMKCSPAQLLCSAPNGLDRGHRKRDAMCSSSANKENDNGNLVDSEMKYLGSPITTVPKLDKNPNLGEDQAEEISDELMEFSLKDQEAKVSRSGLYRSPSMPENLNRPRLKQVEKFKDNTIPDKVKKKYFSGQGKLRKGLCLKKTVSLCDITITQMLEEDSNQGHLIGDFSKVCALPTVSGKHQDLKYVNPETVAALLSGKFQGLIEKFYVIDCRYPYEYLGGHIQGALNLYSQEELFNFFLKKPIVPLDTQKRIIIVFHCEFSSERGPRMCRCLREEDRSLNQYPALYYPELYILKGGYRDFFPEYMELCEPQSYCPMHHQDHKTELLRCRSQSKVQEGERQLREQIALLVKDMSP
The experiment is described as follows: GST pull-down from transfected nocodazole-arrested HeLa cells, anti-HA blot.

Experiment [7] addresses T7, HA-tagged Cdc25C Ser129Val (human) (UniProt P30307).
T7 sequence (mitotically phosphorylated (incompletely), looked up): T6 sequence (mitotically phosphorylated (incompletely), looked up) with S129V, A130T
Described as above.

Experiment [8] deals with T6, HA-tagged Cdc25C Thr130Ala (human). The experiment is described as follows: GST pull-down from nocodazole-arrested transfected HeLa lysates, blot α-HA.
The target in experiment [9] is T7, HA-tagged Cdc25C Ser129Val (human). Described as above.

Changes are numbered by the printed parent chain. Results are given in words; binding and its absence hold for the method and conditions named. For part of these data: Binding seen in cells or lysates may run through a third protein. Some binding calls cover weakened binding; strength is not graded here. For part of these data: Tags and fused reporters may be left off the sequences shown.

For the substance “Plk-1 Polo-box Domain (PBD, residues 326-603) (from UniProt P53350 326-603)”, the binding result in experiment [1], in experiment [2], in [3], in [4] and in [5] was “no binding” each time.
For the substance “GST-Plk-1 PBD (residues 326-603) (from UniProt P53350 326-603)”, the binding result in experiment [6], in experiment [7], in [8] and in experiment [9] was “binds” throughout.

Source of the values: US20050196808A1 (published 2005).
